± gives the standard deviation of the averaged measurements. The list shows a part of the results.
system: PfAP2-EXP AP2 domain (GST-tagged); experiment: gcPBM binding intensity (ln(normalized median fluorescence intensity)); higher = stronger DNA binding
Method in brief: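 Binding intensity values are the highest Masliner-normalised natural-log median intensity among replicate spots of either probe orientation. The binding step lasted 1 h in 1× PBS with 1% milk, 0.2 mg/ml BSA, 0.5% salmon testes DNA and 0.03% Triton X-100, using GST-tagged P. falciparum DNA-binding domains expressed in E. coli on an Agilent 4 × 180k array of primer-extended double-stranded 36-bp intergenic genomic probes plus negative controls. Alexa488 anti-GST antibody and a 488 nm scan detected bound protein.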

| Sequence | gcPBM binding intensity (ln) |
| --- | --- |
| TATATTGCAAAAAGTACACACATAAATAAATACATA [CACACA_site6589] | 8.79 ± 0.37 |
| TTTTTTTTTTTTTGCACACACATATATAAATATATA [CACACA_site3949] | 8.68 ± 0.42 |
| GTAGAGAAAAAAATGTGGACACAAAAAATAAAAAGG [XGTACX_site4058] | 9.05 ± 0.3 |
| AAAAAAAAAAAAAAAGTGCATTAATAAATTTTAATA | 8.47 ± 0.33 |
| TTTCCCTACCAAAAGTGTACTTATACATATTTTTAT [XGTACX_site5495] | 8.63 ± 0.42 |
| ATACGAAAATATTTTGCACACTATAATTATTCATAT [CACACA_site1765] | 8.92 ± 0.33 |
| ACATATTATTCTTCTTGTACACATAAATTTTATAAA [XGTACX_site299] | 9.02 ± 0.34 |
| ACATCTATGTATAATACACACACTAATATATAATTG [CACACA_site5134] | 8.4 ± 0.41 |
| TTTTTTTCATAATATACACACAAAAAAAAAAAAAAA [CACACA_site3224] | 8.14 ± 0.45 |
| TATACTCATATATAAACACACAAAAAAAAAAAAAAA [CACACA_site5165] | 8.37 ± 0.45 |
| ATATATATATATATGTGTACATATATATATCATATG [XGTACX_site3126] | 10.1 ± 0.46 |
| ACACAATGTAGTGTATAAATACAATAAAAGGTTGTA [TGCATGCA_negctrl_site251] | 8.52 ± 0.37 |
| TCAGAAATATTACAAAGTACATGCAACGAAAATTTC [XGTACX_site5061] | 8.695 ± 0.007 |
| TCTTATAATTTACCTACACACAGGAAATATATAAAT [CACACA_site294] | 8.36 ± 0.4 |
| TGATATTTAAATTTTGCACACGCATATGAAATTAGG [CACACA_site1034] | 8.51 ± 0.23 |
| ATGACGTAGTGGTGTACACACATGGTACCTTTATTC [CACACA_site1547] | 9.27 ± 0.53 |
| AAAAAAATATTCAAAGCATGCCTATTTACACATATT [TGCATGCA_site806] | 8.78 ± 0.35 |
| TCTATTATCCTTTGCACACAAAATAAATGAAAAAAT [CACACA_site3029] | 8.58 ± 0.41 |
| ATATAAGTTTTTTCTCAAAAAGTATAACGAGCATGA [CACACA_negctrl_site1375] | 8.72 ± 0.44 |
| CCCACGTATATTTTGTGTACATAAATAAATAAATAA [XGTACX_site4046] | 9.22 ± 0.48 |
| TTTGATAAATGATACACACACAATATTTATAAAATA [CACACA_site7040] | 8.54 ± 0.52 |
| ACATTATATAAATATATACATATATATATATATAAA [GTGCAC_negctrl_site115] | 8.13 ± 0.32 |
| TGTCATGATACATACACACACATACACATACACATA [CACACA_site2135] | 8.71 ± 0.45 |

| Sequence | gcPBM binding intensity (ln) |
| --- | --- |
| TATTTAATTATATAAAATTAAATTTTTAATTCTTCC [CACACA_negctrl_site473] | 8.14 ± 0.47 |
| AAACAACAAAAATGATATATATAAAATTTATAATAT [XGTACX_negctrl_site185] | 8.47 ± 0.36 |
| TATGGATTACACAATTGTACAAGAAAAATGTAAATA [XGTACX_site4040] | 8.56 ± 0.17 |
| ATGCATAAAAGAAATACACACATAAATATATAAATA [CACACA_site2163] | 8.74 ± 0.23 |
| TATAAACTTAATTTGAGTACTTAATAATAATTTTGT [XGTACX_site3730] | 8.04 ± 0.33 |
| ATTTATGATATGTAAACATGCATAAAAATTTCAAAA [TGCATGCA_site858] | 8.23 ± 0.34 |
| AATGGGTTAGCACATACACACCAATATATTATATAT [CACACA_site9011] | 8.57 ± 0.38 |
| TATATATGTATATATGGTACAGAATATTCTACATTA [XGTACX_site5077] | 8.53 ± 0.33 |
| CAATCATTTTATTGTTGTACAGTAATTATGAATTCA [XGTACX_site7508] | 8.4 ± 0.29 |
| CATCCACATATATGTACACACATATATATATATATA [CACACA_site2964] | 10.1 ± 0.52 |
| TACCACATCGGTAAATGTACTTATAAAAAAAAAAAA [XGTACX_site3364] | 8.07 ± 0.42 |
| TTGGTACCTATAGATACACACATATATACATATATA [CACACA_site3402] | 8.46 ± 0.33 |
| TAAGAGTAGTTATATACACACATGTATATTATAGTT [CACACA_site6815] | 8.27 ± 0.4 |
| TATATATATATATTATGTACGTATCAGTTTGTATGT [XGTACX_site695] | 9.85 ± 0.3 |
| ATTTTTAATATTATTACACACACTAAAAAAAAAAAA [CACACA_site1067] | 8.39 ± 0.52 |
| CACGACATTAACAATACATGCAGAAAAACAAAAAAT [TGCATGCA_site689] | 9.39 ± 0.32 |
| TTATAAATTAGAGGTACACACAAAAAAAAAAAGAAA [CACACA_site6740] | 8.71 ± 0.47 |
| TATAAGAGAAGAAGAAAAAAAAGGTTTCTATAGAAA [XGTACX_negctrl_site421] | 8.76 ± 0.52 |
| AAGAAGCATAAATGTACACACATATTTATATATTAA [CACACA_site1332] | 8.37 ± 0.32 |
| CATATAGTAATATATACACACACTTGTCTTGTAAAA [CACACA_site8238] | 8.36 ± 0.49 |
| ATATTTATAATTTTTTGTACACATTTTTTAAAGATA [XGTACX_site1784] | 8.65 ± 0.38 |
| AAATGGAAAAGGTGTACACAAAAAAAAGGGAAAAGC [CACACA_site5331] | 9.39 ± 0.35 |

— the supplement of paper PMC11417369
